About 450 (0.94%) of roughly 48,000 compounds were called active. Inconclusive results (about 19%) are left out. Calls follow the shape of the dose curve; as a rule, active = well fitted inhibition curve with a large enough effect; inconclusive = small, poorly fitted or top-dose-only effect; inactive = no such curve, though single readings can be large or run the other way. The list shows a part of the results.
experiment: Primary qHTS for Identification of Small Molecule Inhibitors of Huntingtin Promoter Activity; details: HEK293 HTT promoter firefly luciferase reporter (activity 0% = vehicle and -100% = no light), 24 h; series mostly up to 57.5 µM; activity change, negative = inhibition: at the top concentration; also: nearly all actives have a fitted effect of over 50% in size
Procedure, shortened: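 HEK293 Fluc reporter, 2,500 cells/well, 24 h pre-culture; cpds up to 57.5 uM final, 24 h 37 degrees C; Dual-Glo, 10 min RT; normalized vehicle = 0%, zero RLU = -100%.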

Activity change, negative = inhibition, inactive:
C[C@]12CCC(=O)C=C1CC[C@@H]1[C@@H]2CC[C@@]2(C)[C@H]1CC[C@]2(O)C(=O)CO -3.37%
COCCNS(=O)(=O)c1cc(-c2nn3c(C)nnc3c3ccccc23)ccc1C 2.07%
Cc1ccc(NC(=O)N2CCN(C(=O)c3nsc4ccccc34)CC2)cc1C -1.73%
COc1cccc(NC(=O)CN2C=NS(=O)(=O)c3ccccc32)c1 -19.6%
COc1cccc(-c2nc3c(c(SCC(=O)Nc4cccc(C)c4C)n2)Cc2c(CO)cnc(C)c2O3)c1 -4.54%
Cc1cccc(CCn2c(=O)c3ccccc3n(Cc3ccccc3C)c2=O)c1 -3.06%
COc1ccc2c(c1)c1c(c(=O)n(Cc3ccccc3)c(=O)n1CC(=O)Nc1ccccc1F)n2C -11.1%
CCOc1ccccc1NC(=O)N1CC(C)Oc2ccc(Cl)cc21 (stereo not drawn) -23.9%
Cc1ccc(OC(=O)CSc2nnc(-c3ccc4c(c3)OCO4)o2)c(C)c1 -22.9%
Cc1cccn2c(=O)cc(COc3ccc(NC(=O)COc4ccc(F)cc4)cc3)nc12 -5.68%
CNC(=O)C1CCCN(c2nnc(C)c3c(C)n(-c4ccccc4)nc23)C1 (stereo not drawn) -5.97%
O=C(O)CCc1ccc(-c2ccc(Br)cc2)n1-c1ccccc1O -7.48%
CCOC(=O)C1CCN(c2cc3c(cc2NC(=O)c2ccccc2Cl)n(C)c(=O)n3C)CC1 -20.9%
CCCCN(CC)CCNC(=O)Cn1cnc2sc(C)c(S(=O)(=O)N3CCN(c4ccccc4OC)CC3)c2c1=O -19.5%
CCOc1ccc(N2CC(c3nc4ccccc4n3CCOc3ccc(OC)cc3)CC2=O)cc1 (stereo not drawn) -25.3%
CCOc1ccc2nc(N3CCCC(C(=O)NCCc4ccc(OC)cc4OC)C3)sc2c1 (stereo not drawn) -9.01%
Cc1cc2nc(-c3ccc(NC(=O)c4ccc(OCC(C)C)cc4)cc3)oc2cc1C 1.63%
CCOc1cccc2sc(N(Cc3cccnc3)C(C)=O)nc12 -29%
O=C(NCCc1ccccc1)c1ccc(CSc2nc3cccnc3n2Cc2ccccc2)cc1 -24.8%
CC(C)CN(c1ccccc1)S(=O)(=O)c1nnc(NC(=O)C2CCCCC2)s1 -5.02%
O=C(NCCO)C(=O)NCC(c1ccc2c(c1)OCO2)N1CCOCC1 (stereo not drawn) 4.12%
COc1ccc(/C=C/c2nc(C#N)c(N3CCC(C(N)=O)CC3)o2)cc1OC 6.7%
O=C(CCS(=O)(=O)c1ccccc1)N(Cc1cccnc1)c1nc2c(F)cccc2s1 14.7%
COc1ccc(C(CC(=O)Nc2ccccn2)N2Cc3ccccc3C2=O)cc1OC (stereo not drawn) -15.9%
CCc1ccccc1NC(=O)Cn1nnc(C(=O)NCc2ccco2)c1N -17.9%
CCOC(=O)c1nnc2c(-c3ccc(Cl)cc3)c(C)nn2c1N -7.89%
CC(=O)Nc1ccc(NC(=O)c2csnn2)cc1 31.4%
COCCN1C(=O)N(c2cccc(OC)c2)C(=O)C1CC(=O)Nc1ccccc1 (stereo not drawn) -7.73%
O=C(NCc1ccc(Cl)cc1)C(=O)NCC(c1ccc2c(c1)OCO2)N1CCOCC1 (stereo not drawn) -16.3%
COc1cc2ccccc2cc1C(=O)N1CCN(c2nc3c(F)cccc3s2)CC1 -8.21%
CCCCc1nn2c(=O)cc(COC(=O)c3cccc(NC(=O)c4cccs4)c3)nc2s1 -14.5%
O=C(c1ccccc1)N1CCC(c2nc3ccccc3o2)CC1 -15.6%
CN1C(=O)Cc2cc(S(=O)(=O)CCC(=O)Nc3ccc(Cl)cc3)ccc21 -12.9%
CC(=O)c1ccc(NC(=O)c2cc3c([nH]c2=O)CC(c2ccccc2)CC3=O)cc1 (stereo not drawn) -19.1%
COc1ccc(OC)c(CNS(=O)(=O)c2cc(-c3onc(C)c3C)ccc2C)c1 -17%
Cc1cc(F)ccc1NC(=O)CCS(=O)(=O)c1cc2c3c(c1)CCN3C(=O)CC2 -4.78%
CCN(CC)C(=O)c1sc2c(c1C)c(=O)n(-c1ccc(C)c(C)c1)c(=O)n2CC(=O)Nc1ccc(OC)cc1OC 0%
CCS(=O)(=O)N1CC(=O)N(c2cc(C)cc(C)c2)C(C)(C(=O)NC2CCCCC2)C1 (stereo not drawn) 14.9%
Cc1cc(C)n2c(Nc3ccc4c(c3)OCCO4)c(-c3ccccc3)nc2n1 -3.37%
COc1ccc(/C=C/C(=O)Nc2cc(-c3nc4ccccc4o3)ccc2OC)cc1 5.78%
CC(=O)c1ccc(NC(=O)CSc2nnc(-c3ccncc3)n2-c2ccccc2)cc1 -11.9%
Cc1ccc(S(=O)(=O)c2[nH]c(-c3ccccc3)nc2SC(C)C(=O)O)cc1 (stereo not drawn) -4.11%
COc1cc2ncnc(Nc3cccc(Br)c3)c2cc1OC -20.8%
COc1ccc(-n2c(SC)nc3sc4c(c3c2=O)CCN(C(C)=O)C4)cc1 -5.78%
c1ccc(-c2ccc(C(c3ccccc3)n3ccnc3)cc2)cc1 (stereo not drawn) -20.4%
Cc1ccn2c(=O)cc(COc3ccc(NC(=O)C(C)(C)C)cc3)nc2c1 -7.51%
COC(=O)c1ccccc1NC(=O)CSc1n[nH]c(C)n1 -8.92%
CC(C)Oc1ccc(CNC(=O)CN2C(=O)c3cccnc3Oc3ccc(Cl)cc32)cc1 -23.8%
